Reference: PubChem BioAssay AID1745853 (National Center for Advancing Translational Sciences (NCATS), 2022)
The other results are listed elsewhere or left out. These are further read-outs of the screen, such as a control signal, another cell line or another target. No call is given for them.

What was measured:
Assay in all cases: Primary Screen for Target Class Profiling of Small Molecule Inhibitors of Methyltransferases
[1] = biological target: Glycine N-methyltransferase (Homo sapiens) (UniProt Q14749); conditions: purified enzyme, MTase-Glo SAH luminescence; measured here: GNMT inhibition; at 40 µM; stronger effect = lower value
Text: (§1) PI: Matthew D. Hall Ph.D. and Quinlin M. Hanson Ph.D.
(§2) National Center for Advancing Translational Sciences (NCATS)
(§3) National Institute of Health (NIH), Rockville, MD
(§4) Target class profiling (TCP) is a chemical biology approach amenable to investigating understudied biological targets. TCP is achieved by developing a generalizable assay platform and applying it to screen a curated set of compound libraries against representative members of a target class. Small molecule methyltransferases (SMMTase) are a subclass of methyltransferase that act on metabolites to modulate signaling pathways, metabolize xenobiotics, or balance the available methyl pool. We screened four curated libraries totaling 27,574 unique compounds against the SMMTases nicotinamide N-methyltransferase (NNMT), phenylethanolamine N-methyltransferase (PNMT), histamine N-methyltransferase (HNMT), glycine N-methyltransferase (GNMT), catechol O-methyltransferase (COMT), and guanidinoacetate N-methyltransferase (GAMT). The data generated by this TCP can be leveraged for informed tool molecule development. For example, in the associated publication we identified a chemotype of HNMT-selective inhibitors. Additionally, we identified a putative SMMTase-selective inhibitor with potential as a tool molecule for studying broader methyltransferase biology.
(§5) High-through put screening assays were developed at the National Center for Advancing Translational Science (NCATS) for the enzymes NNMT, PNMT, HNMT, GNMT, COMT, and GAMT. Enzymatic activity was measured as a function of SAM cofactor conversion using the MTase Glo kit (Promega) for all enzymes. All assays were performed in 1536-well format with substrates and SAM concentrations at KM values. Enzyme concentration and assay timing were optimized for 10-20% SAM conversion. Initial screening of 27,574 compounds was done as single-point assays using the highest compound concentration (40 uM). […] These compounds were replated in 11-point dose response and assayed against NNMT, PNMT, HNMT, GNMT, COMT, GAMT, and a counter-assay. The IC50 and efficacy (maximal response) values were determined for each dose-response curve. These values are also accounted for in the area under the curve (AUC) values.
(§6) PROTOCOL TABLE (as described by Inglese J, Shamu CE and Guy RK. 2007)
(§7) SEQUENCE No. (e.g., 1, 2, 3, etc.); […] (e.g., Cells, Incubation, Reagent, etc.); VALUE; DESCRIPTION.
(§8) 1; Reagent; 2 uL; SMMTase Enzyme (2x) in reaction buffer, columns 1- 48.
(§9) 2; Reagent; 1 uL; SAM (4x) in reaction buffer, columns 1-48.
(§10) 3; Controls; 23 nL; DMSO in column 4; sinefungin in DMSO (0 uM - 40 uM) in 7-point 1:2 dilution series (n = 2) in column 2.
(§11) 4; Compounds; 23 nL; Columns 5-48.
(§12) 5; Reagent; 1 uL; Substrate (4x) in reaction buffer, columns 2-48.
(§13) 6; Time; 20-30 min; Incubation.
(§14) 7; Reagent; 1 uL; MTase-Glo reagent (5X), columns 1-48.
(§15) 8; Time; 30 min; Incubation.
(§16) 9; Reagent; 5 uL; MTase-Glo Detection reagent, columns 1-48.
(§17) 10; Time; 30 min; Incubation, luminescence evolution.
(§18) 11; Detection; Luminescence; ViewLux uHTS Microplate Imager (PerkinElmer).
(§19) NOTES (numbers refer to Sequence numbers above)
(§20) 1, 2, 5. White Medium Binding Greiner 1536-well plates (Cat #789175-F, Greiner Bio-One, Monroe, NC); Reaction buffer: 50 mM Tris, pH 8.0, 3 mM MgCl2, 1 mM EDTA, 50 mM NaCl, 1 mM DTT, and 0.1 mg/mL BSA. Evaporation was prevented by covering assay plates with metal lids containing holes to allow gas diffusion.
(§21) 1. Six SMMTase were profiled: HNMT, GNMT, PNMT, COMT, NNMT, GAMT
(§22) 5. The corresponding substrate was used for each enzyme: HNMT - 5.3 uM Histamine; GNMT - >500 uM Glycine; PNMT - 16.2 uM Norephinephrine; COMT - 13.7 uM Norephinephrine; NNMT - 3.8 uM Nicotinamide; GAMT - 2.5 uM Guanidinoacetate.6, 8, 10. Room temperature
(§23) 6. Final reaction conditions: 10 nM COMT, 5 uM SAM, 15 uM norepinephrine, 50 mM Tris, pH 8.0, 3 mM MgCl2, 1 mM EDTA, 50 mM NaCl, 1 mM DTT, and 0.1 mg/mL BSA; refer to tables 2 and S1 for specific timing.
8. […]

[2] = biological target: Guanidinoacetate N-methyltransferase (Homo sapiens) (UniProt Q14353); conditions: purified enzyme, MTase-Glo SAH luminescence; measured here: GAMT inhibition; at 40 µM; stronger effect = lower value
Text: as §1, §2, §3, §4, §5, §6, §7, §8, §9, §10, §11, §12, §13, §14, §15, §16, §17, §18, §19, §20, §21, §22, §23
8. […]

[3] = biological target: Histamine N-methyltransferase (Homo sapiens) (UniProt P50135); conditions: purified enzyme, MTase-Glo SAH luminescence; measured here: HNMT inhibition; at 40 µM; stronger effect = lower value
Text: as §1, §2, §3, §4, §5, §6, §7, §8, §9, §10, §11, §12, §13, §14, §15, §16, §17, §18, §19, §20, §21, §22, §23
8. […]

[4] = biological target: Nicotinamide N-methyltransferase (Homo sapiens) (UniProt P40261); conditions: purified enzyme, MTase-Glo SAH luminescence; measured here: NNMT inhibition; at 40 µM; stronger effect = lower value
Text: as §1, §2, §3, §4, §5, §6, §7, §8, §9, §10, §11, §12, §13, §14, §15, §16, §17, §18, §19, §20, §21, §22, §23
8. […]

[5] = biological target: Phenylethanolamine N-methyltransferase (Homo sapiens) (UniProt P11086); conditions: purified enzyme, MTase-Glo SAH luminescence; measured here: PNMT inhibition; at 40 µM; stronger effect = lower value
Text: as §1, §2, §3, §4, §5, §6, §7, §8, §9, §10, §11, §12, §13, §14, §15, §16, §17, §18, §19, §20, §21, §22, §23
8. […]
% is set by controls: 0 for no effect and ±100 for the full control effect.

| SMILES | activity change, negative = inhibition [1] [%] | activity change, negative = inhibition [2] [%] | activity change, negative = inhibition [3] [%] | activity change, negative = inhibition [4] [%] | activity change, negative = inhibition [5] [%] |
| --- | --- | --- | --- | --- | --- |
| CCCSCCCN1C(=O)c2cc3sccc3n2CC1(C)C(=O)NC1CCCCCC1 (stereo not given) | -6.32 | 1.65 | -0.676 | 0.818 | -2.29 |
| COc1cccc(CN2CCOCCNC(=O)CC2)c1 | 0.916 | -5.6 | 0.125 | -15.4 | -2.57 |
| CN1C(=O)c2cc(C(=O)NCc3ccccc3F)nn2CC1(C)C(=O)NCc1ccc(F)cc1 (stereo not given) | 0.283 | 2.23 | 3.03 | -3.57 | -2.39 |
| CN(C)C(=O)C(O)C(Cc1ccccc1)NC(=O)c1cc2cc(Cl)ccc2[nH]1 (stereo not given) | 4.55 | 9.1 | 10.5 | -11.9 | 1.23 |
| COc1ccc(CNC(=O)Cn2nc3n(CCC(C)C)c(=O)c4ccccc4n3c2=O)cc1 | 3.46 | 4.77 | 9.03 | 2.1 | 3.06 |
| Cc1cc2[nH]c(=O)[nH]c2cc1S(=O)(=O)N1CCCC1 | -2.52 | 2.54 | -6.27 | -4.76 | -8.02 |
| CCOc1ccc(C(=O)Nc2ccc3c(c2)C(=O)N(C)C2=NCCN23)cc1OCC | -1.5 | -0.002 | 0.343 | 2.6 | -0.717 |
| COc1ccc([C@H]2Cc3cccc(O)c3C(=O)O2)cc1OC | -15.7 | -5.85 | -6.16 | -21 | -3.56 |
| COC(=O)C(CC1CCCC1)c1ccc(S(C)(=O)=O)cc1 (stereo not given) | -0.617 | 5.17 | 9.78 | -18.2 | -2.05 |
